Source: the BET-seq Pho4 binding data (Le et al. 2018)
This is one part of the list. The energies were worked out here from pooled read counts, against the library average; single values are noisy.

Target: T1, Pho4 (S. cerevisiae) (UniProt P07270)
T1 sequence: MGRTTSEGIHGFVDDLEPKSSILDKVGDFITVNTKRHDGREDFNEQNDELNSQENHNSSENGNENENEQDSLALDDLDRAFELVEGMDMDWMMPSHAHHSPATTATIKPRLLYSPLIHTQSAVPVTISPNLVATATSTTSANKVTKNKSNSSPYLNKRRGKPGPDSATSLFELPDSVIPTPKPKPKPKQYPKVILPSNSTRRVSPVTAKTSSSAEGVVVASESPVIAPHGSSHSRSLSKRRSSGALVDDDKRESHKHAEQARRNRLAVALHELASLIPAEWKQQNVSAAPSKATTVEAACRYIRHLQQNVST
Test: relative binding free energy (BET-seq); higher = weaker binding
Conditions: reference: library average

| Sequence | relative binding free energy [kcal/mol] |
| --- | --- |
| TAGTTCACGTGTTCTT | 0.18 |
| TAAGACACGTGTATGA | 0.09 |
| TATTACACGTGAATGT | 0.25 |
| AATGTCACGTGTCAAG | 0.16 |
| TGTTACACGTGTCTTT | 0.08 |
| AATTTCACGTGATAGT | 0.28 |
| AGTGACACGTGGGTTC | -0.23 |
| AGTCACACGTGGAGGT | 0.07 |
| TGGGGCACGTGTATTT | -0.11 |
| ATGATCACGTGGGAGA | 0.13 |
| GTGGTCACGTGCGGAC | 0.11 |
| GGGGGCACGTGAGATC | 0.07 |
| GGATGCACGTGTCGGG | 0.04 |
| TGGCTCACGTGGTGAA | 0.2 |
| GGGGTCACGTGCGGCC | 0.13 |
| TGGTCCACGTGGTATT | -0.09 |
| AGCGTCACGTGGAGTA | 0.11 |
| CGGGCCACGTGGCGGG | -0.25 |
| TAGTGCACGTGGTGGG | -0.06 |
| CATTTCACGTGTGTCG | 0.31 |
| CGGTGCACGTGGGGTT | -0.06 |

| Sequence | relative binding free energy [kcal/mol] |
| --- | --- |
| GTTGGCACGTGCAGTA | -0.2 |
| AGGTCCACGTGAAGGG | 0.19 |
| TGTTCCACGTGAAGTG | 0.29 |
| GCATGCACGTGATGTG | 0.18 |
| GGGAGCACGTGCTGGT | -0.1 |
| TAATTCACGTGCAGGG | 0.23 |
| TCTATCACGTGGGTGA | -0.01 |
| ATTTACACGTGAGAAT | 0.26 |
| GGGTACACGTGACAGG | 0.23 |
| TTATGCACGTGCGTTA | -0.06 |
| TATAGCACGTGGTGGT | -0.12 |
| TGGCTCACGTGAAGTG | 0.37 |
| GATGTCACGTGGAAGG | 0.32 |
| GGGAGCACGTGAGAGG | 0.2 |
| CAGGGCACGTGGGTCA | -0.17 |
| ATGGACACGTGGTTGT | -0.02 |
| ATTTTCACGTGAATAA | 0.27 |
| GAGCACACGTGGGGGC | 0.09 |
| TGTTGCACGTGTAATA | 0.04 |
| GGGATCACGTGGACAG | 0.33 |
| TCTTACACGTGAATTT | 0.44 |

| Sequence | relative binding free energy [kcal/mol] |
| --- | --- |
| TTGTGCACGTGGTCAA | -0.23 |
| CTGATCACGTGTGAGG | 0.16 |
| AGTCTCACGTGGGTAG | 0.02 |
| GGAAACACGTGGGGGG | -0.05 |
| ATGATCACGTGTGTAG | 0.18 |
| GTTTACACGTGTTGTA | 0.19 |
| TGCGGCACGTGTAAGG | 0.02 |
| GTCTGCACGTGAAGGA | 0.35 |
| TATGACACGTGTGTCT | -0.02 |
| TGATGCACGTGGACTG | 0.05 |
| TGTTGCACGTGTTTAG | -0.08 |
| ACGTACACGTGTGGGT | 0.1 |
| AGAGGCACGTGAAGGC | 0.12 |
| GTTCGCACGTGGAGGT | -0.03 |
| GAGTGCACGTGGCGTG | -0.06 |
| TATTGCACGTGACGGA | 0.05 |
| TGTGTCACGTGAATGT | 0.21 |
| TTGCGCACGTGCTGTA | -0.14 |
| CAGTTCACGTGGTGTA | 0.17 |
| GGCGACACGTGTTGGA | 0.32 |
| CTGGGCACGTGTACGT | 0.07 |
